Experimental data taken from PubChem BioAssay AID686979 (National Center for Advancing Translational Sciences (NCATS), 2013).
Among all 420,000 compounds or so, about 50,000 (12%) were called active. Inconclusive means that the source gave no clear call. Such entries were picked first, then a sample of the others. Calls follow the shape of the dose curve; as a rule, active = well fitted inhibition curve with a large enough effect; inconclusive = small, poorly fitted or top-dose-only effect; inactive = flat fitted curve, though single readings scatter. No potency is given beside an inconclusive call; the fits are too rough.

Assay: qHTS for Inhibitors of human tyrosyl-DNA phosphodiesterase 1 (TDP1): qHTS in cells in presence of CPT; also: nearly all actives have a fitted effect of over 55% in size
Settings: chicken DT40 Tdp1-/-;hTDP1 cells + 20 nM CPT, ATP luminescence, 48 h; activity change, negative = growth inhibition: at 46.2 µM (top of the series) unless noted
How it was run: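 Chicken DT40 Tdp1-/- cells complemented with human TDP1, 400 cells/well, exposed to compounds plus 20 nM camptothecin for at least 48 h at 37 C; viability read as ATP content by CellTiter-Glo luminescence.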
% is scaled to controls: 0 for no effect and ±100 for the full control effect; potency is read from the fitted curve at half-maximal effect; tags tell the direction and shape of the fitted curve.

Row | SMILES | Potency | activity change, negative = growth inhibition
1 | COc1cccc(/C=C2/C(=O)NN(c3ccccc3)C2=O)c1 | inconclusive [inhibitor, single point] | 
2 | Cc1occc1C(=O)NNC(=S)NC(=O)COc1ccc(Cl)cc1Cl | inconclusive [inhibitor, single point] | 
3 | COc1cccc(-c2cncnc2NCc2cccs2)c1 | inconclusive [inhibitor, single point] | 
4 | O=C(NCc1nc2ccccc2[nH]1)C1=C[C@H](c2ccccc2)C[C@H](OCCCCO)O1 | inconclusive [inhibitor, single point] | 
5 | CN(C(=O)c1ccc(-c2ccccc2)cc1)C1CCCCC1 | inconclusive [inhibitor, single point] | 
6 | COC(=O)c1ccc(-c2nc(CN3CCCN(C(=O)c4ccco4)CC3)c(C)o2)cc1 | inconclusive [inhibitor, single point] | 
7 | CC(NC(=O)COC(=O)Cc1ccc(-c2ccccc2)cc1)c1ccccc1 (centres undefined) | inconclusive [inhibitor, partial curve, poor fit] | 
8 | COC(=O)c1cc2ccsc2n1CC(=O)N(C)C1CCCCC1 | inconclusive [inhibitor, single point] | 
9 | Cc1cc(C(=O)CN2C(=O)NC(C)(c3cc(F)ccc3F)C2=O)c(C)n1C1CC1 (centres undefined) | inconclusive [inhibitor, single point] | 
10 | COc1ccc(CC(=O)N/N=C(\C)CC(=O)NCc2ccco2)cc1OC |  | inactive: 3.91%
11 | COc1cccc(-c2c(C(=O)N/N=C/c3ccsc3)nnn2-c2nonc2N)c1 |  | inactive: -1.64%
12 | Clc1ccc(-c2cn3ncsc3n2)cc1 | inconclusive [inhibitor, single point] | 
13 | COc1ccc2c(c1)sc1ncc(C(=O)NCc3ccc(Cl)cc3)c(=O)n12 |  | inactive: 15.9%
14 | Fc1ccc(-n2[nH]nnc2=S)cc1N1CCCC1 |  | inactive: -18%
15 | C[C@H]1CCCCO[C@@H](CN(C)S(=O)(=O)c2ccc(Cl)cc2)[C@@H](C)CN([C@@H](C)CO)C(=O)c2cc(NS(=O)(=O)c3ccccc3)ccc2O1 | inconclusive [inhibitor, single point] | 
16 | CCN1CCN(c2oc(/C=C/c3ccc(OC)c(OC)c3)nc2C#N)CC1 | active: 16.4 µM | 
17 | Cc1ccccc1Nc1nc(N)nc(CSc2nc3ccccc3c(=O)n2CCCO)n1 | inconclusive [inhibitor, partial curve] | 
18 | Cc1nnc(SCC(=O)N2CCOCC2)s1 |  | inactive: -23.7%
19 | Cc1ccc(CN2CCC(C)(Oc3ccc(Cl)cc3)C2)cc1 (centres undefined) | inconclusive [inhibitor, single point] | 
